# From the supplement of paper PMC3334620
# The full ranking holds about 33,000 sequences; the median of “E-score (-0.5 to 0.5)” is about -0.011, and the highest 2% start at about 0.28. Some of the results follow.
# Target: T1, Gcr1 (UniProt P07261)
# T1 sequence: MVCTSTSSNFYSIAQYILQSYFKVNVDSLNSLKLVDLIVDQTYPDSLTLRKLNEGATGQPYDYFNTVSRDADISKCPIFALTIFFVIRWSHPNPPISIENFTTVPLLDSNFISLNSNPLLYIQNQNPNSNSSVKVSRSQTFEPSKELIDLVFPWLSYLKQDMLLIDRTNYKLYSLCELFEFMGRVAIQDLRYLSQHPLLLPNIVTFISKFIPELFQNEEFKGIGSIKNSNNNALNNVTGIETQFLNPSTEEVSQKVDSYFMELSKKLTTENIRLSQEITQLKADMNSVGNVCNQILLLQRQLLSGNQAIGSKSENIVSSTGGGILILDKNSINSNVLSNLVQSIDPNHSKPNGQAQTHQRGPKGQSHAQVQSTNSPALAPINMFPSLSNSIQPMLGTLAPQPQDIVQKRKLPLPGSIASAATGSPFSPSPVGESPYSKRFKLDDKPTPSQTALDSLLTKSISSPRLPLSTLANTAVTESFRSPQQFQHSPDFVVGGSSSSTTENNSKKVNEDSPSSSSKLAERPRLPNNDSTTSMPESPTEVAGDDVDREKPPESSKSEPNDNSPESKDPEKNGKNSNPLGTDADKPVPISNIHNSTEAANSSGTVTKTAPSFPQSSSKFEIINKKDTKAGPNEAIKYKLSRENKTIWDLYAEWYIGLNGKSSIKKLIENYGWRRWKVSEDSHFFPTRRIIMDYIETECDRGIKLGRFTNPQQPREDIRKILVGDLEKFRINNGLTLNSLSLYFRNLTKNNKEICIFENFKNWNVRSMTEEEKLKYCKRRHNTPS
# Experiment: PBM E-score (8-mer binding enrichment) (E-score (-0.5 to 0.5)); higher = stronger / more preferred TF binding; most listed sequences are background and not binding sites
# Conditions: protein concentration: 100 nM; construct: GST-full length
# Description: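 Universal 'all 10-mer' protein binding microarrays (Agilent AMADID 015681) probed with GST-tagged S. cerevisiae TFs (full-length or DBD) made by in vitro transcription/translation (PURExpress), about 100-200 nM. Bound TF was detected with fluorescent anti-GST. Each ungapped 8-mer (which stands for itself and its reverse complement) is scored by the PBM enrichment score (E-score), a modified Wilcoxon-Mann-Whitney statistic from -0.5 to +0.5, computed with the Universal PBM Analysis Suite. Scale: above 0.35 generally sequence-specific binding.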
row,Sequence,PBM E-score
1,ATGGCTGA,-0.0287
2,CGCCGGAC,-0.107
3,AATCGAAG,0.0397
4,AACCCGAA,0.206
5,TAGCACGA,0.0376
6,ACCTCTTG,0.0745
7,TGCTACCA,0.154
8,CTACACTC,-0.0305
9,GTATCTGA,-0.00789
10,AGGTCATG,-0.0943
11,GATCTGTA,0.00749
12,CGGGTGGC,-0.235
13,AGGCTTTG,-0.105
14,CCGTGACA,0.142
15,AAGTGGAT,0.136
16,AAACGTCT,-0.00888
17,CGTTGTCA,-0.00721
18,CTCCCGGC,0.162
19,TTAGTCAA,-0.034
20,ATGCTCGG,0.0517
21,AGGTCAGA,-0.151
22,GTCGATGA,0.0898
23,CGATCTGC,-0.135
24,GCGAGGTA,-0.192
25,GAATACTC,-0.0794

row,Sequence,PBM E-score
1,ACGTGGGG,-0.243
2,ATACGAGA,-0.0301
3,GACTGGGC,0.00445
4,ATACTTCC,-0.126
5,CAACTGTC,0.0117
6,CCGAGGCC,-0.212
7,ATACTTGC,0.0173
8,GCGAGTAC,-0.131
9,CCTCTAGA,0.109
10,CTCTGCTC,-0.19
11,AGCTTAAT,0.0654
12,CGTTGAAG,-0.118
13,AGTCAGCA,-0.0314
14,ACAGGGGA,0.0822
15,TACGTGGA,0.118
16,CCTTGTCC,-0.198
17,CTGAGTAA,0.0552
18,ACTCCACG,0.0164
19,ATAATAAC,0.0616
20,CTAAGCCA,-0.21
21,GCCATCTA,-0.0834
22,CCTGTAGA,0.283
23,AGAATAAG,0.0415
24,AGATCAAA,-0.0267
25,ATACCCTG,-0.0852

row,Sequence,PBM E-score
1,ACAAACCA,-0.112
2,AACGCGCA,0.106
3,ACTGCTGA,-0.112
4,AAATGAAG,-0.0707
5,ACGAGTAT,-0.0948
6,CATGTTGG,0.00333
7,GGCAATCA,-0.1
8,ACCAAGCT,0.0395
9,CACCAGGG,-0.0322
10,CTCCTTGA,-0.103
11,AGTTGGAC,0.0302
12,GGGCCGCA,-0.0751
13,CCGTTAAC,-0.0522
14,AAAAAATT,0.076
15,AGTCCCAG,-0.0514
16,CCTGGTGC,0.219
17,CCTATGGA,0.0149
18,ACGCGTGG,-0.0274
19,CAACTAAC,0.00118
20,CCAGACGC,0.235
21,AAACGGAA,0.245
22,GCGGAGGA,-0.18
23,CAAGCAGA,0.0707
24,ATAGCGCC,0.196
25,ATTAGCTA,-0.117

row,Sequence,PBM E-score
1,CAACCGGC,-0.0444
2,ATTCGCCC,-0.151
3,ACCCTGCG,-0.0486
4,AAGTGCCT,0.0162
5,ATGTGTAC,-0.134
6,ATGAGCTG,-0.234
7,AGCACTAC,-0.06
8,GGCATTTA,-0.124
9,CCAGATAA,0.0427
10,TGCCCAAA,0.0545
11,AACCTAAC,0.0972
12,AAGGTGGG,-0.11
13,CAGTGCTC,-0.271
14,ATTAAGCA,-0.00262
15,CGCCCTGC,-0.0571
16,GAGGGAGA,-0.234
17,AAAACCTC,-0.0876
18,TAACATGA,-0.0404
19,AAGCTTAC,-0.143
20,TCGGTGAA,-0.0389
21,CGTAAATC,0.0344
22,AGCCTACG,-0.271
23,CATTGGAC,-0.0003
24,ACTGTGCA,-0.0932
25,CCTTTTTA,0.128

row,Sequence,PBM E-score
1,CGAGGTTA,-0.128
2,TGAGGCCA,-0.0123
3,AGCGAGGC,-0.00747
4,CGGGGTGA,0.0584
5,AATCTATA,0.189
6,ATAGGATG,0.333
7,AAGCGTAC,-0.23
8,GATTTAGA,0.265
9,CGCAACCG,0.24
10,GACTTCGA,-0.0993
11,GCGAGTTA,-0.105
12,CAGCTTCG,0.328
13,ATAGTAAG,-0.0276
14,CACGTACA,0.0322
15,AGTCCGCC,-0.0958
16,ACGAAGTA,-0.169
17,GCTCAGGA,0.147
18,AAAGTGTT,-0.0645
19,GGACCACA,0.0469
20,CGTTTTAG,-0.0467
21,AGGCAGAT,0.0845
22,CCTCCAGA,0.159
23,AATGCGGT,0.102
24,AGGTTCCA,0.327
25,GGACTGTA,-0.251

row,Sequence,PBM E-score
1,ACATCGCT,-0.156
2,CGGCAAAC,0.111
3,ACTCGGGG,-0.129
4,CAACGGCG,-0.163
5,AGTGTTGC,0.0498
6,TAATCGCA,-0.0296
7,AGTCAGAG,-0.0859
8,AGCGTTGC,-0.129
9,AAGAGAAG,0.0746
10,TAAATGCA,-0.16
11,CATCCCTC,-0.196
12,ATCATTGG,-0.0867
13,GGAGTCCA,0.344
14,TAATTAAA,-0.0174
15,ATACACCC,-0.0665
16,CAAGTGAA,-0.089
17,TGAACGAA,-0.0917
18,ACGACAGG,-0.184
19,AATATGTA,0.0989
20,AGGTTCGC,-0.0738
21,TAGAACGA,-0.0222
22,ACTCACCC,-0.126
23,ACTCCGCC,-0.277
24,CGGGAAAC,0.191
25,ATACCCCC,-0.273

row,Sequence,PBM E-score
1,GGCGGAAA,0.0382
2,CCTAGGTA,-0.219
3,AGGCTCAG,-0.0198
4,CCCAGACG,0.0737
5,GAGAACCA,0.123
6,ATACTCTC,-0.277
7,CCCCCACC,-0.142
8,CACGGGAA,-0.0813
9,CGGTCGTC,-0.122
10,ACCATGGT,-0.252
11,CCCCTTTA,0.0437
12,ACTCTGAG,-0.0379
13,CCTCATGC,-0.348
14,ACAGCCAC,-0.00306
15,CACCCTGG,-0.0451
16,CCGTAACC,0.141
17,ATTGCAGA,0.122
18,CTCCCATA,0.098
19,ATCTCTTG,-0.103
20,GAGGGAAA,-0.192
21,GCTACGCC,-0.14
22,AGGGCACT,-0.144
